Laboratory results from the supplement of paper PMC8183993.
Where a name gives a salt, the structure may show the parent alone. ± gives the standard deviation of the averaged measurements. The full ranking holds about 3,200 compounds; the median of “nuclei count (viability) relative to DMSO” is about 99, and the lowest 2% start at about 16. This is one part of the list.

These molecules were tested on U2OS (assay: nuclei count (viability) relative to DMSO (% of DMSO); higher = more viable cells). Conditions: 10 µM; 24 h.
Procedure: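 Primary image-based screen in U2OS cells: compounds at 10 uM for 24 h, then a 1 h o-propargyl-puromycin (OPP) pulse, click labelling, and high-throughput microscopy. Mean cytoplasmic OPP intensity and nuclei count were normalised to DMSO wells within each plate (DMSO = 100) and averaged over triplicate plates.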

Going from `COC(=O)N[C@H](C(=O)N[C@@H](Cc1ccccc1)[C@@H](O)CN(Cc1ccc(-c2ccccn2)cc1)NC(=O)[C@@H](NC(=O)OC)C(C)(C)C)C(C)(C)C` [Atazanavir sulfate] to `COC(=O)C(Cc1ccc(OCCn2c(=O)sc3cc(C(=O)c4ccccc4)ccc32)cc1)C(=O)OC`, the nuclei count rises from 100 to 102.

Compared with `CCC[S+]([O-])c1ccc2[nH]c(NC(=O)OC)nc2c1` (stereo not drawn) [Albendazole Oxide (Ricobendazole)], `COc1ccc2[nH]c(-c3ccccc3)c(CCNC(C)=O)c2c1` [2-Phenylmelatonin] is lower in nuclei count: 97.9 for the first, 84.5 for the second.

First: NC(=O)OCC(COC(N)=O)c1ccccc1 [Felbamate]
Second: O=C(CCCCCCC(=O)Nc1ccccc1)NO [Vorinostat]
The nuclei count of the first is higher: 96.1 for the first, 32.7 for the second.

Compared with `Cc1ccnc(NS(=O)(=O)c2ccc(N)cc2)n1` [Sulfamerazine], `COc1ccc(S(=O)(=O)Nc2cccnc2Nc2ccc(O)cc2)cc1` is lower in nuclei count: 104 for the first, 23 for the second.

Going from `C[C@H]1NC(=O)NC1=O` [Methylhydantoin-5-(D)] to `CC1(c2ccccc2)OC(C(=O)O)=CC1=O` (stereo not drawn) [Acifran], the nuclei count falls from 107 to 91.8.

Compared with `N=C(N)NCc1cccc(I)c1` [Iobenguane sulfate], `Cc1ccccc1OCC(O)CO` (stereo not drawn) [Mephenesin] is lower in nuclei count: 106 for the first, 104 for the second.

First: O=C1CCN(c2ccccc2)N1 [Phenidone]
Second: O=c1cc(-c2ccccc2)oc2cc(O)c(O)c(O)c12 [Baicalein]
The nuclei count of the first is higher: 107 for the first, 90.1 ± 7.5 for the second.

Compared with `O=c1ccn([C@@H]2O[C@H](CO)[C@@H](O)[C@H]2O)c(=O)[nH]1` [Uridine], `CC(C)N(CCCNC(=O)Nc1ccc(C(C)(C)C)cc1)C[C@H]1O[C@@H](n2cc(Br)c3c(N)ncnc32)[C@H](O)[C@@H]1O` is lower in nuclei count: 99.3 for the first, 91.1 for the second.

Going from `O=C(NCCCN1CCCCCC1)C(c1ccccc1)C1CCCCC1` (stereo not drawn) to `Cc1nc2sccn2c(=O)c1CCN1CCC(=C(c2ccccc2)c2ccc(F)cc2)CC1`, the nuclei count falls from 103 to 101.

First: CC(C)n1c(/C=C/C(O)CC(O)CC(=O)O)c(-c2ccc(F)cc2)c2ccccc21 (stereo not drawn) [Fluvastatin sodium salt]
Second: CS(=O)(=O)c1ccc(-c2cc(Br)sc2-c2ccc(F)cc2)cc1
The nuclei count of the first is higher: 105 for the first, 99.5 for the second.

Compared with `CC(C)n1c(/C=C/C(O)CC(O)CC(=O)O)c(-c2ccc(F)cc2)c2ccccc21` (stereo not drawn) [Fluvastatin sodium (Lescol)], `CC(=O)Oc1ccccc1C(=O)Oc1ccccc1C(=O)O` [Acetylsalicylsalicylic acid] is higher in nuclei count: 95.2 for the first, 97.1 for the second.

First: N[C@H](C(=O)O)[C@@H]1CC(Cl)=NO1 [Acivicin]
Second: CC(=O)N[C@@H](CS)C(=O)O [Acetylcysteine]
The nuclei count of the first is lower: 65.9 for the first, 102 for the second.

`CNC(=O)c1c(I)c(C(=O)NCC(=O)Nc2c(I)c(C(=O)O)c(I)c(C(=O)NCCO)c2I)c(I)c(N(C)C(C)=O)c1I` [Ioxaglic acid] and `Cc1ccc(NC(=O)c2cccc(N(C)C)c2)cc1NC(=O)c1ccc(O)cc1` are within error of each other in nuclei count: 95.6 for the first, 94.1 ± 10 for the second.

First: C[C@H](Cn1cnc2c(N)ncnc21)OCP(=O)(O)O [Tenofovir (Viread)]
Second: C/C(=C(\CCOP(=O)(O)O)SC(=O)c1ccccc1)N(C=O)Cc1cnc(C)nc1N [Benfotiamine]
The nuclei count of the first is higher: 108 for the first, 107 for the second.

Compared with `CCCCNc1cc(C(=O)O)cc(S(N)(=O)=O)c1Oc1ccccc1` [Bumetanide], `N[C@@H](Cc1cc(I)c(Oc2ccc(O)cc2)c(I)c1)C(=O)O` [3,5-Diiodo-L-thyronine] is lower in nuclei count: 100 for the first, 89.8 for the second.

Going from `CC[C@H](C)C(=O)O[C@H]1C[C@@H](C)C=C2C=C[C@H](C)[C@H](CC[C@@H]3C[C@@H](O)CC(=O)O3)[C@H]21` [Lovastatin] to `CC[C@H]1OC(=O)C[C@@H](O)[C@H](C)[C@@H](O[C@@H]2O[C@H](C)[C@@H](O[C@H]3C[C@@](C)(O)[C@@H](O)[C@H](C)O3)[C@H](N(C)C)[C@H]2O)[C@@H](CC=O)C[C@@H](C)C(=O)/C=C/C(C)=C/[C@@H]1CO[C@@H]1O[C@H](C)[C@@H](O)[C@@H](OC)[C@H]1OC` [Tylosin], the nuclei count rises from 94.8 ± 2.2 to 99.1.

First: CC[C@H](C)C(=O)O[C@H]1C[C@@H](C)C=C2C=C[C@H](C)[C@H](CC[C@@H]3C[C@@H](O)CC(=O)O3)[C@H]21 [Lovastatin (Mevacor)]
Second: CC[C@H]1OC(=O)C[C@@H](O)[C@H](C)[C@@H](O[C@@H]2O[C@H](C)[C@@H](O[C@H]3C[C@@](C)(O)[C@@H](O)[C@H](C)O3)[C@H](N(C)C)[C@H]2O)[C@@H](CC=O)C[C@@H](C)C(=O)/C=C/C(C)=C/[C@@H]1CO[C@@H]1O[C@H](C)[C@@H](O)[C@@H](OC)[C@H]1OC [Tylosin tartrate]
The nuclei count of the first is lower: 100 for the first, 109 for the second.

First: Clc1ccc(C(Cn2ccnc2)OCc2ccc(Sc3ccccc3)cc2)c(Cl)c1 (stereo not drawn) [Fenticonazole nitrate]
Second: O=c1sn(-c2cccc3ccccc23)c(=O)n1Cc1ccccc1 [Tideglusib]
The nuclei count of the first is lower: 86.1 for the first, 98.3 for the second.

Going from `Cc1c(C)c2c(c(C)c1O)CCC(C)(C(=O)O)O2` (stereo not drawn) [Trolox] to `C[C@]1(c2nc3c(C(N)=O)cccc3[nH]2)CCCN1` [ABT-888 (Veliparib)], the nuclei count falls from 105.5 ± 0.69 to 100.

Going from `Cc1cc(=O)n(C)c2cc(N3C(=O)CC[C@H](NS(=O)(=O)CC(C)C)[C@H]3c3ccc(Cl)cc3)ccc12` to `CCc1ccc2c(-c3cccc(Cl)c3)nc(=O)n(CC)c2n1`, the nuclei count falls from 104 to 101.

Going from `CCN(CC)CCOC(=O)c1ccc(N)cc1` [Procaine hydrochloride] to `CCN(CC)CCOC(=O)C(Cc1cccc2ccccc12)CC1CCCO1` (stereo not drawn) [Nafronyl oxalate], the nuclei count rises from 95.3 to 101.

Compared with `O=C1CCC[C@@H]2[C@H]3CCC[N+]4([O-])CCC[C@@H](CN12)[C@@H]34` (stereo partly drawn) [Oxymatrine (Matrine N-oxide)], `C[C@]12C[C@H](O)[C@H]3[C@@H](CCC4=CC(=O)CC[C@@]43C)[C@@H]1CC[C@@H]2C(=O)CO` [Corticosterone] is higher in nuclei count: 104 for the first, 107 for the second.

Going from `COc1cccc2cc(-c3nc([C@H]4CC[C@H](C(=O)O)CC4)n4ncnc(N)c34)[nH]c12` to `COc1cc2/c(=N/c3ccc(Br)cc3F)nc[nH]c2cc1OCC1CCN(C)CC1` [Vandetanib (Zactima)], the nuclei count falls from 80.4 to 44.7.

Going from `O=C(O)Cc1cccc(OCCCN(Cc2cccc(C(F)(F)F)c2Cl)CC(c2ccccc2)c2ccccc2)c1` [GW 3965 hydrochloride] to `Cc1cc(OCCCS(C)(=O)=O)cc(C)c1-c1cccc(COc2ccc3c(c2)OC[C@H]3CC(=O)O)c1`, the nuclei count falls from 101 to 98.2.

`CC(=O)O[C@H]1C[C@@]2(C)[C@@H](C[C@@H](O)[C@H]3[C@@]4(C)CC[C@@H](O)[C@@H](C)[C@@H]4CC[C@@]32C)/C1=C(\CCC=C(C)C)C(=O)O` [Fusidic acid sodium salt] and `C=C[C@@]1(C)CC(=O)[C@]2(O)[C@@]3(C)[C@@H](O)CCC(C)(C)[C@@H]3[C@H](O)[C@H](OC(C)=O)[C@@]2(C)O1` [Forskolin] are within error of each other in nuclei count: 97.6 for the first, 94.9 ± 7.2 for the second.

Compared with `CC(=O)N[C@@H](CS)C(=O)O` [N-Acetyl-Cysteine], `CC1(C)S[C@@H]2[C@H](NC(=O)C(C(=O)O)c3ccccc3)C(=O)N2[C@H]1C(=O)O` (stereo partly drawn) [Carbenicillin disodium] is lower in nuclei count: 103 for the first, 99 for the second.

Compared with `COc1cc(C2Oc3cc([C@H]4Oc5cc(O)cc(O)c5C(=O)[C@@H]4O)ccc3OC2CO)ccc1O` (stereo partly drawn) [Silibinin (Silybin)], `O=c1cc(-c2ccccc2)oc2cc(O)cc(O)c12` [Chrysin] is lower in nuclei count: 115 for the first, 92.9 for the second.

Compared with `O=c1[nH]c2cc(C(F)(F)F)ccc2n1-c1cc(C(F)(F)F)ccc1O`, `O=C(/C=C/c1ccc(O)c(O)c1)c1ccc(O)cc1O` [Butein] is lower in nuclei count: 99.4 for the first, 92.1 ± 4.8 for the second.

First: CN(C)CCn1nnnc1SCC1=C(C(=O)O)N2C(=O)[C@@H](NC(=O)Cc3csc(N)n3)[C@H]2SC1 [Cefotiam hydrochloride]
Second: O=C(CCCCCN1C(=O)c2cccc3cccc(c23)C1=O)NO [Scriptaid]
The nuclei count of the first is higher: 86.2 for the first, 33.6 ± 1.2 for the second.

Compared with `O=C(O)CCC/C=C\CC1C(O)CC(O)C1/C=C/C(O)COc1cccc(Cl)c1` (racemic) [(±)-Cloprostenol sodium salt], `CCNC(=O)CCC/C=C\C[C@@H]1[C@@H](/C=C/[C@@H](O)CCc2ccccc2)[C@H](O)C[C@@H]1O` [Bimatoprost] is lower in nuclei count: 102 for the first, 91 for the second.

First: O=C1NCCc2[nH]c(-c3ccncc3)cc21
Second: NC(=O)N1C(=O)/C(=C(\O)c2cccs2)c2cc(Cl)ccc21 [Tenidap]
The nuclei count of the first is lower: 48.5 ± 0.87 for the first, 85.7 for the second.

Going from `COC(=O)C1=C(C)NC(C)=C([N+](=O)[O-])C1c1ccccc1C(F)(F)F` (racemic) to `Nc1c2c(nc3ccccc13)CCCC2` [Tacrine hydrochloride], the nuclei count falls from 111 to 91.6 ± 1.2.

Compared with `NCCCCCNCC12CC3CC(CC(C3)C1)C2` [IEM 1754 dihydrobroMide], `CC1(C)O[C@@H]2C[C@H]3[C@@H]4CCC5=CC(=O)C=C[C@]5(C)[C@H]4[C@@H](O)C[C@]3(C)[C@]2(C(=O)CO)O1` [Desonide] is lower in nuclei count: 103 for the first, 91.4 for the second.

First: CCN(CC)C(=S)SSC(=S)N(CC)CC [Disulfiram]
Second: CC(C)=CCC/C(C)=C/CC/C(C)=C/CO [Farnesol]
The nuclei count of the first is lower: 92.1 ± 4.2 for the first, 103 for the second.

Going from `O=C1CN(/N=C/c2ccc([N+](=O)[O-])o2)C(=O)N1` [Nitrofurantoin] to `S=c1ccss1` [1,2-Dithiole-3-thione], the nuclei count falls from 102 to 97.6.

`CC(C)NCC(O)COc1ccc(COCCOC(C)C)cc1` (racemic) [(±)-Bisoprolol hemifumarate] and `COc1ccc(-c2nc(-c3ccc(-c4cccc(Cl)c4)o3)[nH]c2-c2ccc(OC)cc2)cc1` [Neurodazine] are the same in nuclei count: 102 for the first, 102 for the second.

Molecule `CC(C)NCC(O)COc1ccc(COCCOC(C)C)cc1` (racemic) [Bisoprolol fumarate] has a nuclei count of 95.5.
